US20130244255A1, “ANTIBODIES DIRECTED TO GPNMB AND USES THEREOF” (priority 2006, published 2013)

Key:
[1] = target: T1, GPNMB (Homo sapiens, UniProt Q14956); assay: Binning of antibodies (Luminex competitive binding); details: three bins of six anti-GPNMB antibodies
T1 construct: we cloned the human CG56972 extracellular domain (ECD; aa 23-480); made in house; host or cells: HEK 293 cells
T1 sequence (Q14956 23-492): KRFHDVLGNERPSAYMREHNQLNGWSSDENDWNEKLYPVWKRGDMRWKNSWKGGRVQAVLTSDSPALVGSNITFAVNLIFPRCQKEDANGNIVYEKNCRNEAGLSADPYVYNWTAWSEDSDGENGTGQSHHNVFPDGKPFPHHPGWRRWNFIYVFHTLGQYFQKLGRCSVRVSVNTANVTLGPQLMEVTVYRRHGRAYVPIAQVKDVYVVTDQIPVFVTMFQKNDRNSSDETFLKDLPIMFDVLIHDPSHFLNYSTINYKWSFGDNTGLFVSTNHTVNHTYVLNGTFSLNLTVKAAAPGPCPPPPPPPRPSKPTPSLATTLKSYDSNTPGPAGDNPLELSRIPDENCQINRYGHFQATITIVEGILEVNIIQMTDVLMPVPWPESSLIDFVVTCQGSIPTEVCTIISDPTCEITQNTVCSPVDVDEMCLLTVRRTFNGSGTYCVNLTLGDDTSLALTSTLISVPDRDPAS
Experimental: Certain antibodies, described herein were binned in accordance with the protocol described in U.S. Patent Application Publication No. 20030157730. M×hIgG conjugated beads are prepared for coupling to primary antibody. The volume of supernatant needed is calculated using the following formula: (n+10)×50 μL (where n=total number of samples on plate). Where the concentration is known, 0.5 μg/mL is used. Bead stock is gently vortexed, then diluted in supernatant to a concentration of 2500 of each bead per well or 0.5×10^5/mL and incubated on a shaker in the dark at RT overnight, or 2 hours if at a known concentration of 0.5 μg/mL. Following aspiration, 50 μL of each bead is added to each well of filter plate, then washed once by adding 100 μL/well wash buffer and aspirating. Antigen and controls are added to filter plate 50 μL/well then covered and allowed to incubate in the dark for 1 hour on shaker. Following a wash step, a secondary unknown antibody is added at 50 μL/well using the same dilution (or concentration if known) as is used for the primary antibody. The plates are then incubated in the dark for 2 hours at RT on shaker followed by a wash step. Next, 50 μL/well biotinylated m×hIgG diluted 1:500 is added and allowed to incubate in the dark for 1 hour on shaker at RT. […] Following a wash step, each well is resuspended in 80 μL blocking buffer and read using Luminex. […]

[2] = target: T2, cell membrane-bound GPNMB protein (Homo sapiens, UniProt Q14956); assay: FACS analysis of anti-GPNMB antibody binding to melanoma cell lines
T2 construct: endogenous in cells; host or cells: UACC-62 and a panel of melanoma lines (A5)
T2 sequence (Q14956 23-572): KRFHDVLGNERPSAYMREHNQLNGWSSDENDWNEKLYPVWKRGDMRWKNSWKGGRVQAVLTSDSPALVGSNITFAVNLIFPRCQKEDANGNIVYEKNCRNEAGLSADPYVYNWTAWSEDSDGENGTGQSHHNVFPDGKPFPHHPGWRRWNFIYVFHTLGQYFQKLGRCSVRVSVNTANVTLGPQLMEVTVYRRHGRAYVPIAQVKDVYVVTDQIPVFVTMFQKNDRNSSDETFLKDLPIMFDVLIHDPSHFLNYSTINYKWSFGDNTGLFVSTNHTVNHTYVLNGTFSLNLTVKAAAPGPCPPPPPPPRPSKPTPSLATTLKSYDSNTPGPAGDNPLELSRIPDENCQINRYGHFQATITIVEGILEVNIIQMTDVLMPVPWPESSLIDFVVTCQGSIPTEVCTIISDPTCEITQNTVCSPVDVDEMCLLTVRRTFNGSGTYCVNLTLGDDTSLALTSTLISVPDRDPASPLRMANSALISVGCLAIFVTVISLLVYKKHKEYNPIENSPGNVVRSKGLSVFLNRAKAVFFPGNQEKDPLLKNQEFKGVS

B1: 2.3.1: human anti-GPNMB antibody; VH SEQ ID NO: 200, VL SEQ ID NO: 209 (antibody, listed as Homo sapiens, V domains shown)
VH: [about 100 residues not listed]DFFGSGSLLYFDYWGQGTLVTVSSA
VL: DIVMTQTPLSLSVTPGQPASISCKSSQSLLHSGGKTYLYWYLQRPGQPPQLLIYEVSNRFSGVPDRFSGSGSGTDFTLKISRVEAEDVGVYYCMQSIHLPLTFGGGTKVEIKR
bin [1]: Bin 2
binding to GPNMB expressing cells by FACS (in words) [2]: does not bind to GPNMB expressing cells
